# Measured values taken from the RNAGym collection of RNA variant scans (doi:10.1073/pnas.2313332121).
# This sample is rich in variants without activity.
# B1: TPR 5TU (parent)
# chain: GGAUCUUCUCGAUCUAACAAAAAAGACAAAUCUGCCACAAAGCUUGAGAGCAUCUUCGGAUGCAGAGGCGGCAGCCUUCGGUGGCGCGAUAGCGCCAACGUUCUCAACUAUGACACGCAAAACGCGUGCUCCGUUGAAUGGAGUUUAUCAUG
# Variants of: B1
# Assay: polymerase ribozyme fitness, log enrichment relative to wild type (log ratio); higher = more active; in vitro selection for triplet polymerase activity
# Summary of the method: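 Both subunits of a heterodimeric triplet polymerase ribozyme were given their own mutant library, built by PCR and transcribed. Each library was annealed with a biotinylated primer, the partner subunit and triplets, incubated frozen at −7 °C, and its extended constructs gel-excised, captured on streptavidin beads and amplified by RT-PCR, all in one round done in triplicate. Fitness is the logarithm of genotype enrichment relative to wild-type enrichment, with replicates averaged by inverse-variance weighting. That logarithm is base 2, and Illumina-sequenced genotypes needed ≥10 input reads and ≥1 read per output.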
row,Variant,polymerase ribozyme fitness (log ratio)
1,G42U G65A C95U U139G,≤ -4.2
2,A41G G42C A64U G88U U102G,≤ -4.2
3,A41U A66C C85A A122U,≤ -4.2
4,A41U U61A G84U C103U C116U G141C,≤ -4.2
5,G42C G88U U101G A106U,≤ -4.2
6,A41U G65C U90G,≤ -4.2
7,G42U U44A C93U U111C G124C,≤ -4.2
8,A41C C51A A64G C96A C99U,≤ -4.2
9,G42A C63G G70A C87U,≤ -4.2
10,G42A A49C G59A C95A A142C,≤ -4.2
11,G42A G58U G62U C75G G92A A137U,≤ -4.2
12,G42C G46A G70A C105U,≤ -4.2
13,C43A C51G C93A A106C A107G G143U,≤ -4.2
14,A41G G58C U61C U82G C87G U104G C118G G141U,≤ -4.2
15,C43A U53A A60C U61A C76A C87U C95G U146C U148G,≤ -4.2
16,A41U C69A C103G A150G,≤ -4.2
17,A41U U45G C87U U104G C108U,≤ -4.2
18,C43U C57G G70A A89G C93U,≤ -4.2
19,G42A G141C,≤ -4.2
20,C43G U82G A89U,≤ -4.2
21,C43A A73G C87G C125G C132A G141C C149A,≤ -4.2

row,Variant,polymerase ribozyme fitness (log ratio)
1,A41U A47C C125G G126A A138G,≤ -4.2
2,C43U G124U,≤ -4.2
3,G42C A47G A73U C95A,≤ -4.2
4,G42A G58A U135C U139C A142C A147G,≤ -4.2
5,A41C C54G G67A C76U C87U A106G,≤ -4.2
6,C43U A52U U55G C79A G140C,≤ -4.2
7,G42U C108U C125U A138U U148A,-4.13
8,G42A A73G G80A G94A A119G C129G,≤ -4.2
9,C43U G88C C116A G143A,≤ -4.2
10,C43U U55C G94A C105U A115U C125A,≤ -4.2
11,G42U C63A A64C C95A U146A C149A,≤ -4.2
12,A41G G88A U104A A106G,≤ -4.2
13,A41G C54G G84A U148C,-3.53
14,A41G A49C U82G U90G G133A,≤ -4.2
15,C43A A47C U53A A91G,≤ -4.2
16,G42A U144A,≤ -4.2
17,C43U G59A C96A G117A A121U G126U U139C,≤ -4.2
18,G42A C72G C95U G152A,≤ -4.2
19,G42C U55A C85U,≤ -4.2
20,C43A U77G,≤ -4.2
21,G42A A47U U53G A64U G94U A120U,≤ -4.2

row,Variant,polymerase ribozyme fitness (log ratio)
1,G42A U55A G59C,≤ -4.2
2,C43G G67C C69U U77A A97G C118U A119G,≤ -4.2
3,C43U G50U U109A A150U,≤ -4.2
4,C43U A89U A91C A97G,≤ -4.2
5,G42U A47C C87A U104G A107G,≤ -4.2
6,A41C G94C,-1.8
7,C43A G88A,≤ -4.2
8,G42C C54G A66G C75G G92A C105G C108U U130G G140U,≤ -4.2
9,A41C C95G,-0.72
10,A41C C57G G136U,-3.64
11,A41C C85U C96A C105G C125U G143U,≤ -4.2
12,C43G G84A C95A A106U C118G G143U,≤ -4.2
13,A41C U53A C54U C75A G86C U144G U145A,≤ -4.2
14,A41C U56A C57U C87A A98U G124C C149A,≤ -4.2
15,A41G G59A A64G G74U C93A C118G G136A,≤ -4.2
16,C43G C54A C75A,≤ -4.2
17,C43G A47C U55C C85A G86A U102A G152C,≤ -4.2
18,G42C A60U G67C G128U A138U,≤ -4.2
19,C43G U61G A73U,≤ -4.2
20,G42U A110G A113C C123A,≤ -4.2
21,G42A U77A C79G G84C G133C G141U U146G U148A,≤ -4.2

row,Variant,polymerase ribozyme fitness (log ratio)
1,G42C U55A G70A U82C U90C C95U C108A U109C,≤ -4.2
2,A41U C96A C105A G117U U144G,≤ -4.2
3,A41G G50C A52C G68A G92U C105A U135G G143A,≤ -4.2
4,C43U A73G C76U C87G,≤ -4.2
5,A41G A52G U78A,≤ -4.2
6,C43U A64C A97G C105U C108A,≤ -4.2
7,G42A G71A,≤ -4.2
8,A41U G74C A91C A97U,≤ -4.2
9,A41C G84A G88A A97C A120G C129G,≤ -4.2
10,C43A A52C G94A,≤ -4.2
11,C43U A91C C99G C114G,≤ -4.2
12,A41C G48C C57U G84A,-2
13,G42U G74C C85U G136A U144G,≤ -4.2
14,C43U G74U C96U G141A,≤ -4.2
15,A41C G140A A142U A150G,≤ -4.2
16,C43G U56A G80A G83U C95A C118A,≤ -4.2
17,G42C C103U G117C C125U U134G G140U,≤ -4.2
18,G42C U61A A64U C125A,≤ -4.2
19,G42A G59C C125G,≤ -4.2
20,A41C C51U U77A U78C G88C C125G G141U,≤ -4.2
21,G42A A52G G83U G86A G136U,≤ -4.2
